According to PubChem BioAssay AID686979 (National Center for Advancing Translational Sciences (NCATS), 2013):
In all, about 420,000 compounds went through this assay and about 50,000 (12%) were called active. The inconclusive results got no clear call from the source; some entries with a clear call stand among them for comparison. Calls follow the shape of the dose curve; as a rule, active = well fitted inhibition curve with a large enough effect; inconclusive = small, poorly fitted or top-dose-only effect; inactive = flat fitted curve, though single readings scatter. No potency is given beside an inconclusive call; the fits are too rough.

Experiment: qHTS for Inhibitors of human tyrosyl-DNA phosphodiesterase 1 (TDP1): qHTS in cells in presence of CPT; also: nearly all actives have a fitted effect of over 55% in size
Conditions: chicken DT40 Tdp1-/-;hTDP1 cells + 20 nM CPT, ATP luminescence, 48 h; activity change, negative = growth inhibition: at 46.2 µM (top of the series) unless noted
Procedure, shortened: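 Chicken DT40 Tdp1-/- cells stably complemented with human TDP1 were seeded at 400 cells/well in medium containing 20 nM camptothecin, exposed to pin-transferred compounds, and grown at 37 °C for at least 48 hr. Viability was read as ATP luminescence.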
% is scaled to controls: 0 for no effect and ±100 for the full control effect; potency is read from the fitted curve at half-maximal effect; tags tell the direction and shape of the fitted curve.

Row | Structure (SMILES) | Potency | activity change, negative = growth inhibition
1 | CN[C@@H](C)[C@@H](O)c1ccccc1 | inactive | 
2 | CCN(CC)C(=O)N[C@@H]1C=C2c3cccc4[nH]cc(c34)C[C@@H]2N(C)C1 | active: 21.1 µM | 
3 | CN1C(=O)C(=Cc2ccccc2Oc2ccc(Cl)c(F)c2)C(=O)N(C)C1=O | inconclusive [inhibitor, single point] | 
4 | CC1CCC(C(C)C)C(OP(N)(=O)c2ccccc2)C1 (centres undefined) | inconclusive [inhibitor, single point] | 
5 | C[C@@H]1Cn2cnc(C(=O)Nc3ccc(CNC(=O)OC(C)(C)C)cc3)c2C(=O)N1 | inconclusive [inhibitor, full curve, poor fit] | 
6 | Cc1cc(C(C)(C)C)cc(C)c1CC1=NCCN1 | inconclusive [inhibitor, single point] | 
7 | COc1ccccc1N1CCN(C(CNC(=O)Oc2ccccc2)c2cccnc2)CC1 (centres undefined) | inconclusive [inhibitor, partial curve] | 
8 | c1ccc(-c2nnc(C3CC(c4cccnc4)=NO3)o2)cc1 (centres undefined) | inactive | 
9 | Cc1cc2c(cc1C)NP(=S)(c1ccccc1)N2 | inactive | 
10 | COC(=O)C1=C(c2cc3ccccc3s2)C[C@@H]2CC[C@H]1N2C(=O)NCc1ccc(F)cc1 | inconclusive [inhibitor, single point] | 
11 | Cc1ccc(C(=O)Nc2ccc(Cl)cc2C(=O)c2ccccc2)cc1 | inactive | 
12 | O=C1/C(=C\c2ccc3c(c2)OCO3)N2CCC1CC2 | inactive | 
13 | C=C[C@@H]1C2=CCOC(=O)C2=CO[C@H]1O[C@@H]1O[C@H](CO)[C@@H](O)[C@H](O)[C@H]1O | inactive | 
14 | COC(=O)C1=C(c2ccc(OCc3ccccc3)cc2)C[C@@H]2CC[C@H]1N2C(=O)NCc1ccc(F)cc1 | active: 14.6 µM | 
15 | CC(C)C(=O)NC(Oc1ccccc1Cl)C(Cl)(Cl)Cl (centres undefined) | inactive | 
16 | CCCOP(=O)(OCCC)C(Nc1cccc(C(F)(F)F)c1)c1ccc(C)cc1 (centres undefined) | inconclusive [inhibitor, single point] | 
17 | COc1ccc(C2CN(C)CC2C(=O)c2ccc(F)cc2)cc1Cl (centres undefined) | inactive | 
18 | CC(=O)N1CN2CN(C(C)=O)CC(C(=O)c3ccc(Br)cc3)(C2)C1 | inactive | 
19 | O=C(Nc1ccc(F)cc1)Oc1ccc[nH]c1=O | inconclusive [inhibitor, single point] | 
20 | Clc1ccc(N2CC2c2ccncc2)cc1 (centres undefined) | inconclusive [inhibitor, partial curve] | 
21 | COCCO[C@H]1CC[C@@]2(C)C(=CCC3C2CC[C@@]2(C)C3CC[C@]2(C)O)C1 (some centres undefined) | inconclusive [inhibitor, partial curve] | 
22 | COC(=O)C1=C(c2cccc(OCc3ccccc3)c2)C[C@@H]2CC[C@H]1N2C | inconclusive [inhibitor, single point] | 
23 | Cc1ccc(CNS(=O)(=O)c2cc3c(cc2C)N(C)CCO3)cc1 | inconclusive [inhibitor, single point] | 
24 | O=C(c1ccccc1)C1CCCN(Cc2nc(-c3cnccn3)no2)C1 (centres undefined) | inactive | 
25 | Cc1cccc(N2C(=O)/C(=C/c3ccc(CN(CCC#N)S(C)(=O)=O)o3)C(=O)NC2=S)c1 | inactive | 

Row | Structure (SMILES) | Potency | activity change, negative = growth inhibition
26 | CCOP(=O)(Cc1cc(C(C)=O)c(C)o1)OCC | inactive | 
27 | C[C@@H]1CN([C@@H](C)CO)C(=O)c2c(c3ccccc3n2C)-c2ccccc2CO[C@H]1CN(C)C(=O)C1CC1 | inconclusive [inhibitor, single point] | 
28 | CCN(CC)P(=O)(Nc1ccc(Br)cc1)c1c(C)nn(CCC#N)c1NC(=O)c1ccc(Cl)cc1 (centres undefined) | inconclusive [inhibitor, partial curve] | 
29 | CCCCCCn1c(O)c(C=NC2CCCCC2N)c(=O)[nH]c1=O (centres undefined) | active: 16.4 µM | 
30 | C=Cn1ccnc1P(=S)(c1nccn1C=C)C1CCCCC1 |  | inconclusive: -34.3% [inhibitor]
31 | O=P(OC1CCCCC1)(OC1CCCCC1)C(O)c1ccc(Cl)cc1Cl (centres undefined) | active: 16.4 µM | 
32 | O=C(Cc1cc(=O)[nH][nH]1)N/N=C/c1cccc2ccccc12 | inconclusive [inhibitor, partial curve, poor fit] | 
33 | CN(C)CC1CSCCC1(O)c1cccc(Cl)c1 (centres undefined) | inactive | 
34 | O=c1c2ccccc2nc(-c2ccc(-c3ccccc3)cc2)n1-c1ccncc1 | inconclusive [inhibitor, single point] | 
35 | O=S(=O)(Nc1c(O)ccc2ccccc12)c1ccc(F)cc1 | inconclusive [inhibitor, single point] | 
36 | CCN1CCN(Cc2ccc(OC(F)(F)F)cc2)CC1 | inactive | 
37 | Cc1ccc(NC(=O)N2CC2)cc1NC(=O)N1CC1 | inconclusive [inhibitor, single point] | 
38 | CCOC(=O)c1c(C)[nH]c(C)c1S(=O)(=O)NCC(=O)N1CCN(c2cc(Cl)ccc2C)CC1 | active: 23.1 µM | 
39 | CCC(=NCc1ccco1)c1c(O)n(C2CCCCC2)c(=O)[nH]c1=O | active: 23.1 µM | 
40 | O=C(CF)NC(Nc1cccc2cccnc12)C(Cl)(Cl)Cl (centres undefined) | inconclusive [inhibitor, single point] | 
41 | Cc1nc2ccccc2c(=O)n1-c1cc([N+](=O)[O-])cc([N+](=O)[O-])c1 | inconclusive [inhibitor, single point] | 
42 | CC(=O)c1c(C)n(Cc2ccccc2)c2ccc(O)cc12 | active: 16.4 µM | 
43 | O=c1[nH]c(O)c(/C=C2\C=NN=C2c2ccccc2)c(=O)[nH]1 |  | inconclusive: -36.4% [inhibitor]
44 | CCOc1ccc(-n2c(/C=C/c3ccccc3)nc3ccccc3c2=O)cc1 | inconclusive [inhibitor, partial curve] | 
45 | COC(=O)C1=C(c2ccc(OC(F)(F)F)cc2)C[C@@H]2CC[C@H]1N2C(=O)NC1Cc2ccccc2C1 | active: 23.1 µM | 
46 | Cc1cc(C)cc(NC(=O)Cn2c(=O)oc3cc(S(=O)(=O)N4CC(C)CC(C)C4)ccc32)c1 (centres undefined) | inconclusive [inhibitor, single point] | 
47 | OC(COCc1ccc(Cl)cc1)CN1CC=C(c2ccccc2)CC1 (centres undefined) | active: 16.4 µM | 
48 | Cc1ccccc1NC(=O)CSc1nc2ccccc2c2nc(CCn3c(C)nc4ccccc43)nn12 | active: 14.6 µM | 
49 | ClC(Cl)=C(c1ccc(Cl)cc1)c1ccc(Cl)cc1 | inactive | 
50 | O=C(OCC(=O)c1ccc([N+](=O)[O-])cc1)/C(=C/c1ccc(Cl)cc1)NC(=O)c1ccccc1 | active: 16.4 µM | 

Row | Structure (SMILES) | Potency | activity change, negative = growth inhibition
51 | O=S(=O)(c1ccc(F)cc1)N1CN2CCN(C2)C1 | inconclusive [inhibitor, single point] | 
52 | CC1OC(NCCc2ccccc2)C(O)C(O)C1O (centres undefined) | inactive | 
53 | COc1ccc(C2NCc3ccccc3-n3cccc32)cc1 (centres undefined) | inconclusive [inhibitor, single point] | 
54 | Cc1cccc(OP(N)(=O)Oc2cccc(C)c2C)c1C | inconclusive [inhibitor, single point] | 
55 | CC(Oc1cc2oc(=O)c3c(c2cc1Cl)CCCC3)C(=O)NCc1ccccn1 (centres undefined) | inconclusive [inhibitor, single point] | 
56 | CC(=O)NCC(=O)Nc1ccc(Br)cc1C(=O)c1ccccc1 | inactive | 
57 | Cc1ccc(Cn2cc(C=O)c(-c3ccc(F)cc3)n2)cc1 | inconclusive [inhibitor, single point] | 
58 | Cn1cccc1/C=C1\C(=O)NC(=O)N(Cc2ccco2)C1=O | active: 9.2 µM | 
59 | COc1ccc2c(C)c(CC(=O)N3C[C@H]4C[C@@H](C3)c3cccc(=O)n3C4)c(=O)oc2c1 | inactive | 
60 | C[N+]1(CC2COC(c3ccccc3)(c3ccccc3)O2)CCCCC1 (centres undefined) | inconclusive [inhibitor, single point] | 
61 | O=CC1=C(N2CCOCC2)/C(=C\c2ccccc2)CC1 | inconclusive [inhibitor, single point] | 
62 | CC(C)CCNC(=O)c1cc(C(=O)c2cc(Br)ccc2O)cn(CCC(C)C)c1=O | inconclusive [inhibitor, single point] | 
63 | CC(Cc1ccccc1)NC(=O)Cc1ccc(N(C)C)cc1 (centres undefined) | inactive | 
64 | CCCCCn1c(=O)c(C(=O)NCc2ccco2)c(O)c2ccccc21 | inconclusive [inhibitor, single point] | 
65 | COc1ccc(C(=O)OCC2CN2c2cccc([N+](=O)[O-])c2)cc1 (centres undefined) | inconclusive [inhibitor, single point] | 
66 | CC1(C)Cc2c(c(N3CCOCC3)nc3sc4c(NCc5ccccc5)nnnc4c23)CS1 | active: 16.4 µM | 
67 | COc1cc(/C=N/n2cnnc2)ccc1OC(=O)N(C)C | inactive | 
68 | Cc1ccc(-c2nc3ccccc3c(=O)n2-c2cc(C)ccn2)cc1 | inconclusive [inhibitor, single point] | 
69 | CN1CCN(c2csc3ccc(F)cc3c2=O)CC1 | inactive | 
70 | CCCCCSc1cc(O)c(C(CNC)C(C)C)cc1OC (centres undefined) | inconclusive [inhibitor, single point] | 
71 | Cc1cc(C=C2C(=O)NC(=S)NC2=O)c(C)n1C1CCCC1 | active: 14.6 µM | 
72 | CCOc1ccc(S(=O)(=O)NCCc2sc3nc(-c4ccc(C)cc4)nn3c2C)cc1 | inconclusive [inhibitor, single point] | 
73 | COc1ccc(NC(=O)c2cn(CCC#N)nc2-c2ccc(OC)c(OC)c2)cc1 | inactive | 
74 | COc1cccc(CNc2ccc(S(N)(=O)=O)cc2)c1OCc1ccccc1F | inconclusive [inhibitor, single point] | 
